# From the supplement of paper PMC11417369
# Some of the results follow.
# Test system: PfSIP2 AP2 domain 1 (GST-tagged)
# Experiment: gcPBM binding intensity (ln(normalized median fluorescence intensity)); higher = stronger DNA binding
# How it was run: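 Plasmodium falciparum DNA-binding domains carrying a GST tag were expressed in E. coli and applied for 1 h, at about 25 μg on average, to an Agilent 4 × 180k array. The array held primer-extended double-stranded 36-bp intergenic genomic probes together with negative controls, and binding took place in 1× PBS with 1% milk, 0.2 mg/ml BSA, 0.5% salmon testes DNA and 0.03% Triton X-100. An Alexa488 anti-GST antibody detected bound protein, and the array was scanned at 488 nm. Binding intensity is taken as the highest Masliner-normalised natural-log median intensity across replicate spots of either probe orientation.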
row,Sequence,gcPBM binding intensity (ln)
1,TGACATATTATTAGGTGGTCACGTCTCCACGTCAAG [XGTACX_site7943],7.06
2,AAACGGGAGAAATAAAAATAAAAATAATAAAACAAA [XGTACX_negctrl_site586],6.77
3,TATACTCATGGACACACACACATACACAGACATACA [CACACA_site5024],7.37
4,TTCATATATAATTGTACACACAAAAACGACATTGTG [CACACA_site2074],7.09
5,TAAATATGAGGGAACACACACATGATATATAAATTC [CACACA_site2400],6.85
6,GGAAATAAAATTAAATGTACGAAAACTCATTAAATT [XGTACX_site4274],6.75
7,TAAATAAAAAGACACACACACATATTTATATTTATA [CACACA_site7135],6.89
8,ATATTAAAAAGGAAATGTACGTAATGAAGATCAAGT [XGTACX_site3138],7.86
9,TAAATTGGTGCAAAGTGTACATATATATCTTTCCTA [XGTACX_site5458],11.4
10,GAGAAAAATATATACACACACATAAATATATACATA [CACACA_site1895],6.98
11,AAATATCAACTCAAATGTACAAATCACAAAAATGTA [XGTACX_site5344],6.9
12,ATATATGATGTATTTGTGCACATATATATATTATTA [GTGCAC_site9471],8.94
13,TTAAAAAACATTTGAACATGCAATTGTATATGTAGA [TGCATGCA_site334],6.84
14,ATATATACCTATATTACACACTTCTTATTCTAAGAA [CACACA_site7421],6.98
15,ATTGTTACATAAAATGCACACTTTCAAATATGCTAA [CACACA_site5600],7.39
16,TATTTATTAAGACACACACACACACGCACAAAATAA [CACACA_site6254],7.59
17,TATACACATATATATAGTACATATATAATTTACTAT [XGTACX_site1849],7.06
18,AGTATTCTAATTTTTAAACACACAAATATAAATAAG [CACACA_site9029],7.07
19,AGGGTTCATATATTAACACACACATACATATTATAT [CACACA_site8959],6.94
20,AAACAAAAGGAAAACATATATATATTAAATGTATAT [CACACA_negctrl_site1663],7.14
21,TGAAATTAAATATATACACACATATATATTTATATG [CACACA_site3516],6.82
22,GCAAAATAACAATGTTACACTTATAAAATTGAGGCA [GTGCAC_negctrl_site68],6.87

row,Sequence,gcPBM binding intensity (ln)
1,TTTTTTTTTCTCCATACACACTTGATAAAACTTTTT [CACACA_site4512],6.88
2,ATTTATATTCCAATATGTACATATTTTCGTATAACC [XGTACX_site8507],7.05
3,ATTACAAATTCTTTCAGTACATATAAAGAAAAAAAT [XGTACX_site7786],7.21
4,ATTTAGAATGTTCCTACACACCAAATTTAAGGGTGC [CACACA_site5320],8.5
5,AAAAAAAAAACACACACATGCACATCATATTATATA [TGCATGCA_site133],7.03
6,TTAATACAAATAAAAAGTACAAGTATCGAACTACTA [XGTACX_site6308],6.82
7,TTTTTAGTAACATATAGTACATATATATATATATGT [XGTACX_site4780],7.36
8,TTATTTTTTCTTCAAATGTGAATTATTCATTTATTT [TGCATGCA_negctrl_site545],6.74
9,ATAATATGAAACTCGTACGAGGTTGTCCCAAATATA [CACACA_negctrl_site1350],6.87
10,ATATATTATCAACTTACACACAGAAAAATATAATAA [CACACA_site293],6.96
11,TTTAAAGGTGATAAAACACACGATTTAGAAATGTAT [CACACA_site3161],7.01
12,GATATGTAAATAATATGTACATATTTATATTGTATT [XGTACX_site4052],7.04
13,AAAAAGAATGTGAACACACACATTGAATATAATTTA [CACACA_site1262],6.67
14,GATATTTTTATTTGTTGTACTTAAGATAATAAATGA [XGTACX_site2891],7.24
15,AAAAAAAAAAAAATACGTACACAAAAAATTGCAAAG [XGTACX_site5663],7.46
16,AATATATTAAAAAAGCGTACAAGAATTGGAAAATGG [XGTACX_site6576],7.46
17,TGTATAACCTGTGTTACACACATTAAAATTTATATA [CACACA_site4449],6.88
18,ATAAATGTGTTTATTTAACACACAAAAGAAAAAATA [CACACA_site8589],6.88
19,GTATCAAAAGAATACACACACACATACCTATAAATA [CACACA_site7737],7.04
20,AAAGGAAAAAAAGTAGCACACAAATATTTATAATAT [CACACA_site8772],6.93
21,CATACATAAATATAAACATGCATATATTTTTTTTAT [TGCATGCA_site616],6.8
22,TGATATCTTAAGAAATGTACAAAGATATAACCATTT [XGTACX_site1913],6.74

row,Sequence,gcPBM binding intensity (ln)
1,ATTTTAATAAAATATGTACACACATACACCCATATA [CACACA_site8326],7.34
2,TAAATAAAAAAAAATACACACATCTATATAAAATAT [CACACA_site3774],6.76
3,TAGGAGAAAAAAAAAAGTACCCACAACTATTATACT [XGTACX_site8195],6.85
4,TGGTAATATCGATTCACACATATCAAAATAAAAAAA [CACACA_site4196],7.11
5,AACATATTAATGTACACACACCCACGCACAAACAAA [CACACA_site7320],7.52
6,TTATAAGATTTATGTACACACATATACACAGCTCTA [CACACA_site6481],7.12
7,AGTATTATATATATATGTACATAATATACATATATA [XGTACX_site8514],7.07
8,TCCTAATGCTACCACACACACAAAAACAAATAATAA [CACACA_site2610],7.49
9,GCTATAAATACAGACGCACACATATACATACAGATA [CACACA_site5778],7.47
10,TGTTATTAGAAAAATGCACACCAAAAAAAAAAAAAA [CACACA_site8802],7.59
11,ATATACATAATATATAATATAAATATATATATGGAA [CACACA_negctrl_site906],6.74
12,TATTAAAATATTTATACACACATAATTTTGATAAAT [CACACA_site4486],6.75
13,TGTCATTCCTCTTATTGTACAAAAATATTATAATAT [XGTACX_site1134],7.5
14,ATGGAACTTAAAAATTGTACACATAAAATGGAGAAG [XGTACX_site1823],7.36
15,GTTATACGCATCAACACACACATACAACGTGGTGTA [CACACA_site1188],7.06
16,TAATTAATTTACATTTTAATTTTATACAAAATTTAT [CACACA_negctrl_site830],6.7
17,ACATATTTATATTCTACACACTTATACTATAATACA [CACACA_site7204],7.15
18,AATATATATATTAAATGTACATTACATAATTATATA [XGTACX_site3450],7.06
19,TAAATGAAAATATGTACACACTTGAAAACTTTTATG [CACACA_site7388],6.88
20,TGCAACAAAATAAACACACACACACTAGCACAAAAA [CACACA_site5805],7.1
21,TTTTTTTTTTTAGACACATGCATTTTTATAATTTTC [TGCATGCA_site843],6.78
22,TATATATATTAACTTGTGCGCAAAAAGATATAATTT [GTGCAC_site9672],7.53

row,Sequence,gcPBM binding intensity (ln)
1,AATATTTTGATGTGTACACATTAATACAGTTTTACA [CACACA_site5711],7.2
2,TAGGATATTGAATAATGTACTTTATATATAATATAA [XGTACX_site7828],6.9
3,ATATGTATGTATGTCTCAAAATTTCATATTATATTA [CACACA_negctrl_site784],6.64
4,AAGAAATAAAAAAAACGTACATATATACATACATAC [XGTACX_site3980],7.9
5,AAAAACGAAAAAAATACACACCTGAAAAGATATGTA [CACACA_site4644],6.66
6,GTATATATGTATATGTGTACATATATTTTATAATAT [XGTACX_site5703],7.28
7,AGATCATAATATTATACACACATTATATATATGTAA [CACACA_site8419],7.01
8,TGGAAAGTTATTAACACACACATATAAATATTTATA [CACACA_site6173],6.98
9,GGAATAACCAGACACACACACACATATATATATATA [CACACA_site3541],9.12
10,TATATATAATATTATACACACATATCTGCATAATAT [CACACA_site4202],7.37
11,AAAAACCATTCGCACACACACATAATCTATAATATA [CACACA_site6782],7.34
12,AAGTACCATATAGGCACACATATATATATATATATA [CACACA_site3282],9.71
13,TCCAATTCTTTATTTTGTACACATTATGTGCATATG [XGTACX_site6290],7.29
14,GTTGTTATATAAAGGAGTACATAATAACACAAATAT [XGTACX_site615],7.45
15,TTTTCTTGTAGTATAACAAAATATAGTAATATATAT [GTGCAC_negctrl_site609],7.39
16,AAAAAAAAAAAAAAAACACACATTTATAGTATATAT [CACACA_site1194],7.57
17,GATTTATTTCATATCACACATTTTGGCTATTTTGTG [CACACA_site5793],6.88
18,AATCCTTCATATGTAGTGCATATTAACAAAATAAAA [GTGCAC_site9500],8.78
19,ATGAAATATTTATTTGTGCACTTAATTTGTTGGAAA,10.4
20,CCATTTGGTATTATATGTACATATAATTTTTTTTTT [XGTACX_site157],7.02
21,ATTATCCATGCATTTACACACACACCCAAAAAAATT [CACACA_site4101],7.9
22,AAAGGGGCATATATATGTACATATTATATATTTTGA [XGTACX_site2436],7.27
